Test results taken from article PMC4336329 (PLoS ONE, 2015).
About 14,000 (4.5%) of roughly 310,000 compounds showed an effect of 50% or more. The effect is printed as a negative number. This is one part of the list.

target: human ether-à-go-go-related gene (hERG) potassium channel (human, UniProt Q12809); test: primary screen, population patch clamp on CHO cells stably expressing hERG
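Note: peak tail current of the secondary pulse compared with the same well before compound.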

Chain of human ether-à-go-go-related gene (hERG) potassium channel (Q12809 whole entry, looked up): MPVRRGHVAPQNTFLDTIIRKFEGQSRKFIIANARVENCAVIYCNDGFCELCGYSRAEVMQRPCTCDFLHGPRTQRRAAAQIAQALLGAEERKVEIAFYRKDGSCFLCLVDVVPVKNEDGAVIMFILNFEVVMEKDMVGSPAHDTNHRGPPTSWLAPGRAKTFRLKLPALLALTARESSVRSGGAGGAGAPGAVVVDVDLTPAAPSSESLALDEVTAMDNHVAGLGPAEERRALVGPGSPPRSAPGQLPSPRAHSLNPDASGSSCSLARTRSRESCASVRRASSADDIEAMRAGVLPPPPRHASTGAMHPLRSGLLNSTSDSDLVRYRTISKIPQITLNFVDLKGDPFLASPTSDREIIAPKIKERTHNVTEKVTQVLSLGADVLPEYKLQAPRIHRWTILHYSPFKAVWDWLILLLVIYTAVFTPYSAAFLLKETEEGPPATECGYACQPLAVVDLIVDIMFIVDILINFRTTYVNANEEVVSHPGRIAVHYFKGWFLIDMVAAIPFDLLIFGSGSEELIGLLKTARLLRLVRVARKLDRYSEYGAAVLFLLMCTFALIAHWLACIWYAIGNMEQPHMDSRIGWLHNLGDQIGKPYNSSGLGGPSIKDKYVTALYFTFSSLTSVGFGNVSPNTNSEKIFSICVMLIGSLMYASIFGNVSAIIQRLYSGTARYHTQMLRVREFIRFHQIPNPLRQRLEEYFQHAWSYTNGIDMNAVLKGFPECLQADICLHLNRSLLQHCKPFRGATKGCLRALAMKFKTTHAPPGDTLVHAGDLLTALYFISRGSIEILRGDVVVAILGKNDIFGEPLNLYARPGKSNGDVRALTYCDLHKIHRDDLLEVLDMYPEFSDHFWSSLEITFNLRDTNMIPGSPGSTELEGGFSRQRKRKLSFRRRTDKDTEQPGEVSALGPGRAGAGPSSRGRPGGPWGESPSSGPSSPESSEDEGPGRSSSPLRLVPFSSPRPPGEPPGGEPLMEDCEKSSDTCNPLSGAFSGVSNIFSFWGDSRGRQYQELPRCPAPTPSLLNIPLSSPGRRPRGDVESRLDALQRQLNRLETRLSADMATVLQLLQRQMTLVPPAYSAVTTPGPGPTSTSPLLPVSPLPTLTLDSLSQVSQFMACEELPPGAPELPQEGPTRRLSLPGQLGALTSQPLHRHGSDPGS

Structure (SMILES)	hERG current change (%, negative = inhibition) at 10uM [%]
O=C(NC1=NCCS1)c1ccc2c(c1)C(=O)N(Cc1ccco1)C2=O	3.1
O=C(Cc1ccccc1F)N1CCN(S(=O)(=O)c2ccc(Cl)cc2)CC1	12.6
Cc1nonc1CN(C)C(=O)c1cc(COc2ccc(F)cc2Cl)on1	-4.29
Cc1ccc(S(=O)(=O)N(C)c2cc(S(=O)(=O)N3CCOCC3)c(C)cc2C)cc1	-34.1
COc1ccc(S(=O)(=O)Nc2noc3ccccc23)cc1OC	21.5
COc1cc(C)c(C(C)C)cc1S(=O)(=O)N1CCOCC1	-14.6
O=C(C1CCN(C2CCN(Cc3ccsc3)CC2)CC1)N1CCOCC1	-3.8
O=C(CSc1nnc(-c2cccnc2)n1Cc1ccco1)c1ccccc1	-10.3
C=CCNC(=O)c1ccc2c(c1)S(=O)(=O)c1ccccc1C2=O	-45.8
COc1ccc(NC(=O)C/C(C)=N/NC(=O)C(=O)NC(C)C)c(OC)c1	16.5
Cc1cc2oc(=O)c(CC(=O)NCCCO)c(C)c2c2occ(C(C)(C)C)c12	-9.35
CCOC(=O)c1c(NC(=O)COC(=O)c2nc(Cl)ccc2Cl)sc2c1CCC2	10.2
CCCN(CCC)C(=O)Cn1c(=O)c2ccccc2n2c(=S)sc(-c3ccccc3C)c12	2.97
CC(=O)c1ccn(S(=O)(=O)c2ccccc2)c1	-11.9
COc1ccc(C(=O)C(OC(=O)CNC(=O)c2ccco2)c2ccccc2)cc1 (centres unmarked)	2.95
Cc1ccc2c(c1)C(c1ccccc1)N(C(=O)c1ccc(F)cc1)CC(=O)N2 (centres unmarked)	-6.99
CC(C)c1ccc(NC(=O)C2CCN(c3ncnc4c3nc3n4CCCCC3)CC2)cc1	14.4
Cc1nc(N2CCN(c3ccccn3)CC2)c2c(C)c(C(=O)Nc3ccc(F)c(Cl)c3)sc2n1	14.2
CN(C(=O)CCNC(=O)Cn1cnc2ccccc2c1=O)c1ccc(F)cc1	19.2
COc1ccc(Nc2ncnc3sccc23)cc1OC	11.6
O=[N+]([O-])c1cc(Br)c(O)c(/C=N/Nc2nnnn2-c2cccc3ccccc23)c1	0.778
Fc1ccc(C(Nc2ccccn2)c2c[nH]c3ccccc23)cc1 (centres unmarked)	-5.21
CCC(=O)Nc1ccc(C(=O)Nc2ccc3c(c2)C(=O)N(CC2CCCO2)C3=O)cc1 (centres unmarked)	8.91

Structure (SMILES)	hERG current change (%, negative = inhibition) at 10uM [%]
O=C(c1ccco1)N1CCC(n2nnc3ccccc32)CC1	-17.1
CC(=O)Nc1ccc(NC(=O)C/C(C)=N/NC(=O)C(=O)Nc2ccc(C)c(Cl)c2)cc1	9.93
Cc1ccc(NC(=S)Nc2ccc(OC(F)F)c(Cl)c2)cc1F	2.28
Cc1ccccc1CSCC(=O)Nc1ccccc1-c1ccccc1	4.91
Cn1c(Cl)c(/C=N/OC(=O)c2cccc(Cl)c2)c2ccccc21	2.86
CCOc1ccc(N=C2C(=O)N(CN3CCOCC3)c3ccccc32)cc1	-5.44
Cc1nc2ccccc2c(=O)n1NC(=O)c1c(O)c2c(n(CC(C)C)c1=O)CCCC2	-8.15
COc1ccc(CCN=CC2=C(O)CCCC2=O)cc1OC	20.7
CN(CCCNC(=O)Cn1cccc1C(=O)c1ccccc1)C1CCCCC1	-39.3
Cl.c1ccc(OCC2CCNCC2)nc1	5.06
Cc1cccc(NC(=O)CC2Nc3cccc4cccc(c34)NC2=O)c1 (centres unmarked)	-9.15
CC(=O)/C=C(\C)NCCNc1c(F)c(F)c(CO)c(F)c1F	5.71
Cc1ccc(C(C)C)c(OCC(=O)Nc2ccc3c(c2)nc(CN2CCCC2)n3C)c1	-76.2
Cn1c(=O)c2c(nc(SCCN3CCOCC3)n2C)n(C)c1=O	16.9
O=C(CNc1ccccc1)N/N=C/c1ccc([N+](=O)[O-])cc1	-8.81
COc1ccc(CNc2oc(-c3cccc4ccccc34)nc2P(=O)(OC)OC)cc1	4.65
CC(=O)c1cccc(Nc2c3c(nc4ccccc24)CCC3)c1.Cl	-68.8
CCOC(=O)C1(Cc2ccccc2C)CCCN(C(=O)COC)C1 (centres unmarked)	21.5
Cc1c(C(=O)Nc2ccncc2)sc2nc(-c3ccccc3)cn12	-12.5
CCCCCn1c(SCC(=O)OC)nc2c1c(=O)[nH]c(=O)n2C	-60.7
CCC1CCCCN1c1cc(C)nc2cc(-c3cccc(C)c3)nn12 (centres unmarked)	-1.65
O=C(Nc1nc2ccc(F)cc2s1)C1CCN(S(=O)(=O)c2cc([N+](=O)[O-])ccc2Cl)CC1	9.6
Cc1c(NC(=O)C2CC=CCC2C(=O)O)c(=O)n(-c2ccccc2)n1C (centres unmarked)	-10.6

Structure (SMILES)	hERG current change (%, negative = inhibition) at 10uM [%]
CN(Cc1nc2c(s1)CCCC2)C(=O)CCc1nnc(-c2ccccc2)o1	-10.5
COc1ccccc1Cc1noc(COc2cccc(C)c2C)n1	3.03
Cc1nnsc1NC(=O)OCCCl	14.2
Cc1ccc(COCCN2CCN(S(=O)(=O)c3ccc(C)cc3)CCC2=O)cc1	6.17
Cc1onc(-c2c(Cl)cccc2Cl)c1C(=O)Nn1cnnc1	10.6
O=C(CNC(=O)c1ccccc1F)OCc1nc2ccccc2s1	20.6
CC(=O)N1CCCc2cc(S(=O)(=O)N3CCN(c4ccccn4)CC3)ccc21	-4.38
CC(C)Nc1cc(N2CCCC2)ccc1[N+](=O)[O-]	-7.55
Cc1cc(/C=C2\SC(=S)N(C)C2=O)c(C)n1-c1ccccc1O	1.43
CCCCCCCC(=O)Oc1ccc(C(=O)Nc2cc(C)on2)cc1	21.5
CC1CC(=O)c2cnc(N)nc2C1 (centres unmarked)	-3.43
CCOc1ccccc1NC(=O)CN1C(=O)C(C)SC(C)C1=O (centres unmarked)	14
C=CCC1NS(=O)(=O)OC2CCCC12 (centres unmarked)	10.6
CN(C)/N=C/c1ccc(/C=N/NC(N)=S)o1	5.07
N#CCC(=O)NNC(=S)NC(=O)C(c1ccccc1)c1ccccc1	5.41
O=C(NCc1ccc2c(c1)OCO2)C1CCCN(S(=O)(=O)c2cccnc2)C1 (centres unmarked)	7.92
O=C(NC(=S)Nc1cc([N+](=O)[O-])ccc1Cl)c1ccccc1	-0.0499
CCOc1cc(C2NC(=O)CCC2[N+](=O)[O-])cc(Br)c1OCC (centres unmarked)	-24.2
COCCNC(=O)c1ccc2c(c1)nc(C)n2-c1cccc(Cl)c1	2.88
CCOc1ccccc1OCC(=O)Nc1ccc2[nH]c(=O)[nH]c2c1	12.3
NS(=O)(=O)c1ccc(NS(=O)(=O)c2ccc(C3CNC(=O)C3)cc2)cc1 (centres unmarked)	16.2
Cc1cc(NC(=O)CCCN2C(=O)c3cccnc3C2=O)no1	2.62
CC(c1nnc(SCC(=O)NC(=O)NCc2ccco2)n1-c1ccc(Cl)cc1)N(C)C (centres unmarked)	-8.66

Structure (SMILES)	hERG current change (%, negative = inhibition) at 10uM [%]
CC(C)CC(=O)NCCCN1CCN(CCCNC(=O)CC(C)C)CC1	17.6
O=C(Nn1c(SCc2ccccc2F)nc2ccsc2c1=O)c1ccccc1	-7.82
CCc1oc(C(=O)O)cc1COC	-9.57
CC(=O)N1c2ccccc2C2(C)C(C1(C)C)C2(Cl)Cl (centres unmarked)	2.78
CCCc1nc2c([nH]1)c(=O)n(C)c(=O)n2C	15.8
CCc1nn(-c2cc(Cl)ccc2OC)c2c1C(=O)CCC2	-10.4
Cc1cc(C(=O)NNc2ccc(C)c(C)c2)no1	7.51
Cc1cc(OC(C)C(=O)N2CCN(c3ccc(F)cc3)CC2)c2c(C)cc(=O)oc2c1 (centres unmarked)	-1.27
CN(C)S(=O)(=O)c1cccc(NC(=O)COC(=O)C2CCN(C(=O)c3ccc(F)cc3)CC2)c1	-50.8
CC1CN(Cc2nc3c(c(=O)[nH]c(=O)n3C)n2CCN2CCOCC2)CC(C)O1 (centres unmarked)	1.59
CC(=O)Nc1ccc(NC(=O)c2c(C)c(-c3ccccc3)nc3ccccc23)cc1	-11.2
O=C(Cc1ccc(Br)cc1)N1CCN(c2ccccc2)CC1	-35.7
CCOc1ccc(NC(=O)C2CCCN(S(=O)(=O)c3cnc[nH]3)C2)cc1 (centres unmarked)	-1.14
CN(C)CCNC(=O)c1c(O)c2c([nH]c1=O)CCCC2	12.7
CC(C)(C)c1csc(N(CCC#N)CCC#N)n1	2.31
CCC(C)(C)n1nnnc1C(c1cccnc1)N1CCC(Cc2ccccc2)CC1 (centres unmarked)	-46.2
O=C(CCCN1C(=O)/C(=C/c2ccccc2Cl)SC1=S)NNC(=O)c1ccc(Cl)cc1	6.89
COc1ccc(C(C(=O)NC2CCCCC2)N(C(=O)CCl)c2ccc(OC)cc2)cc1 (centres unmarked)	-0.0951
Cc1ccc2nc(-c3ccc(NC(=O)COC(=O)c4ccc([N+](=O)[O-])o4)cc3)sc2c1	-1.6
CC(=O)c1ccc(Nc2nc3ccccc3nc2NS(=O)(=O)c2cccs2)cc1	14.9
